This is an account of results in ChEMBL document CHEMBL4888484, “Replenishing the malaria drug discovery pipeline: Screening and hit evaluation of the MMV Hit Generation Library 1 (HGL1) against asexual blood stage Plasmodium falciparum ,using a nano luciferase reporter read-out” (2022).

As a reminder, the % Inhibition is the drop in the measured response relative to a control, in per cent.

Among all 150,000 compounds or so, about 540 (0.36%) showed an effect of 50% or more. The list shows a part of the results.

This test has as its system Plasmodium falciparum. As to the kind of experiment: Primary screen in NF54 nanoGlo assay, in single point, at 2uM, 72h; a lower Z score goes with more inhibition. The test is classed as functional, Erythrocyte. The settings on record: timepoint 72 hour.
As for `CC1CN(C(=O)c2cnc(C3CC3)s2)CC(C)N1C` (configuration not stated), the “% Inhibition” value is -6% and the Z score came to 0.94.

With `O=C(Nc1ccc(Nc2ncccn2)cc1)[C@@H]1Cc2ccccc2O1`, the “% Inhibition” value was -6% and the Z score is listed as 1.13.

For the molecule `CCc1ccc(CNC(=O)c2nnn(-c3ccc(F)c(C)c3)c2-c2ccccn2)cc1`, the “% Inhibition” value is given as 5% and the Z score is recorded as -1.

In the case of `Cn1nnc2c1CC(C(=O)NC1COc3ccc(F)cc3C1)CC2` (configuration not stated), the “% Inhibition” value is reported as 1% and the Z score is -0.11.

For the molecule `COc1cccc(-n2cnc3c2[C@@H](c2cc(OC)c(O)c(OC)c2)CC(=O)N3)c1`, the “% Inhibition” value is listed as -1% and the Z score was 0.12.

Regarding `COc1cccc(N2CCN(c3nccn4c(C)nnc34)CC2)c1`, the “% Inhibition” value was found to be 3% and the Z score is given as -0.48.

For `FC(F)(F)c1ccnc(N2CC(Cn3cccn3)C2)n1`, the “% Inhibition” value is -11% and the Z score was 1.27.

For `CCn1ccnc1CN(C)C(=O)C1(N2C[C@@H](C)O[C@@H](C)C2)Cc2ccccc2C1`, the “% Inhibition” value is reported as -5% and the Z score came to 0.53.

On to `CCCc1[nH]nc(CCc2ccc(OC)cc2)c1NC(=O)c1cccc(F)c1`, for which the “% Inhibition” value was -15% and the Z score is 1.87.

`CC(C)(C)[C@H](CCO)NC(=O)c1ccc(F)cc1Cl`: the “% Inhibition” value is -20% and the Z score is 2.29.

As to `Cc1ccc([C@H]2C[C@@H](C(F)(F)F)n3ncc(C(=O)NCC4CCCO4)c3N2)cc1` (some centres not stated), the “% Inhibition” value is listed as -7% and the Z score is on record as 1.17.

Consider `COc1ccc(S(=O)(=O)N2Cc3cncnc3C2)cc1C`, for which the “% Inhibition” value is recorded as -10% and the Z score turned out to be 1.72.

As for `CC(C)(C)c1cn2nc(N3CC[C@H](N4CCCC4)C3)sc2n1`, the “% Inhibition” value is recorded as -3% and the Z score is given as 0.46.

As for `CCC(C)NC(=O)C(NC(=O)c1cccc(C)c1)C1CCN(C(=O)COC)CC1` (configuration not stated), the “% Inhibition” value is recorded as -6% and the Z score was 0.59.

In the case of `CCC[C@H]1CCCN1Cc1cnc(N(C)CC(=O)O)nc1`, the “% Inhibition” value came out at 0% and the Z score is -0.04.

For the molecule `O=c1c2ccncc2ncn1[C@H]1CCCc2ccccc21`, the “% Inhibition” value is recorded as -14% and the Z score was found to be 2.18.

For the molecule `CCOc1ccc([C@@H]2CC(c3ccc(C)cc3C)=NN2C(=O)CN2CCOCC2)cc1`, the “% Inhibition” value is reported as -16% and the Z score came to 1.55.

In the case of `C[C@@H](C(=O)O)N(Cc1cccc(F)c1)Cc1cn(C)nn1`, the “% Inhibition” value stood at 10% and the Z score was -1.35.

For the molecule `COc1cccc(CNC2CC2)c1OCc1ccc(C)cc1`, the “% Inhibition” value is -1% and the Z score is recorded as 0.08.

As to `CC(=O)N1N=C(c2c(F)cccc2Cl)O[C@H]1COc1ccc(C(C)(C)C)cc1`, the “% Inhibition” value is -14% and the Z score is given as 1.77.

Consider `O=c1ccccn1CCCc1noc(NCC2(c3cccc(F)c3)CC2)n1`, for which the “% Inhibition” value is on record as 5% and the Z score was -0.67.

Regarding `Cc1nccn1CCNC(=O)[C@H]1CCN(c2cnn(Cc3ccccc3)c(=O)c2)C1`, the “% Inhibition” value is reported as -9% and the Z score stood at 1.34.

For the molecule `CN(C)C(=O)c1cncc(NC[C@@]2(C)CCCO2)n1`, the “% Inhibition” value is on record as -4% and the Z score came to 0.77.

As to `c1ccc(-c2csc(NCCc3ccccn3)n2)cc1`, the “% Inhibition” value is given as -6% and the Z score was found to be 0.71.

In the case of `CCn1cc([C@H](CNC(=O)c2ccccc2)N2CCC(c3ccccc3)=N2)c(C)n1`, the “% Inhibition” value is listed as -5% and the Z score was 0.73.

On to `CN(C(=O)CC(C)(C)c1ccccc1)S(C)(=O)=O`, for which the “% Inhibition” value is -1% and the Z score is 0.21.

With `CC(C)CN1CC[C@H](c2nc3ccccc3o2)C1`, the “% Inhibition” value was determined as 29% and the Z score was -3.28.

As for `O=C(CC1CCCCCC1)N1CCC(N2CCCS2(=O)=O)CC1`, the “% Inhibition” value is -5% and the Z score amounted to 0.77.

Consider `CN(CC[C@H]1CCCO1)C(=O)c1c[nH]nn1`, for which the “% Inhibition” value was -6% and the Z score stood at 0.81.

On to `COc1ccc2nc(O)c(CCC(=O)N3CCCC3)cc2c1`, for which the “% Inhibition” value was -20% and the Z score was determined as 3.74.

On to `O=C(NCc1cn(-c2ccsc2)nn1)NC1CCCCC1`, for which the “% Inhibition” value amounted to 6% and the Z score is -0.95.

Take `O=C(NCCCc1nccs1)[C@@H]1[C@H]2[C@@H]3CC[C@@H](C3)[C@@H]12`: the “% Inhibition” value is -6% and the Z score is 0.83.

In the case of `CN(C)c1ncc2c(n1)CCC[C@@H]2NC1CCCC1`, the “% Inhibition” value was -7% and the Z score is 0.82.

For `COc1ccc(CN(C)C(=O)NCc2nnc([C@@H]3CCCO3)[nH]2)cc1C`, the “% Inhibition” value stood at 1% and the Z score is recorded as -0.14.

As for `Cc1nc([C@@H]2CCCCCN2C(=O)c2cccc(CN(C)C)c2)no1`, the “% Inhibition” value came out at 0% and the Z score is -0.03.

Regarding `COc1ccccc1-c1nc(NCCN(C)C)nc2nn(-c3ccc(Cl)cc3)c(N)c12`, the “% Inhibition” value was found to be 0% and the Z score worked out at 0.02.

`O[C@@]1(Cc2cccc(Cl)c2)CCN(Cc2n[nH]c3c2COCC3)C1`: the “% Inhibition” value is recorded as -4% and the Z score was 0.62.

`O=C(N[C@@H](CO)c1cc(F)c(F)c(F)c1)c1ncccc1O`: the “% Inhibition” value is -3% and the Z score is given as 0.24.

With `O=C(CN1CCN(Cc2ccc3c(c2)CCO3)CC1)Nc1nc2ccccc2s1`, the “% Inhibition” value was 5% and the Z score was -1.

Take `CC(C)n1ncc2cc(NS(=O)(=O)c3ccc(S(C)(=O)=O)cc3)cnc21`: the “% Inhibition” value was -12% and the Z score is on record as 1.57.

Regarding `Cc1ccc([C@H](CNC(=O)Nc2cccs2)OCCO)cc1`, the “% Inhibition” value amounted to 0% and the Z score is given as -0.06.
